Data from the BET-seq Pho4 binding data (Le et al. 2018).
This is one part of the list. The energies were worked out here from pooled read counts, against the library average; single values are noisy.

molecular target: T1, Pho4 (S. cerevisiae) (UniProt P07270); assay: relative binding free energy (BET-seq); higher = weaker binding; conditions: reference: library average
T1 sequence: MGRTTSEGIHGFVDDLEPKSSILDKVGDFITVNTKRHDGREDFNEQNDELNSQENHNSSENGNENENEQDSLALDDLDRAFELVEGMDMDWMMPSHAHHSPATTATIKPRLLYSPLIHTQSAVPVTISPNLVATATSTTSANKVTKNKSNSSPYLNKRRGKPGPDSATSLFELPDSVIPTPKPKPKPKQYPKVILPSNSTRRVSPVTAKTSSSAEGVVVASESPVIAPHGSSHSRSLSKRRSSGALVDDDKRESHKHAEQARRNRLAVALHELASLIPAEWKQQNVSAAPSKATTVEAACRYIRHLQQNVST

Row | Sequence | relative binding free energy [kcal/mol]
1 | TTTGACACGTGGCGAT | -0.03
2 | GGAAGCACGTGTGGGC | -0.05
3 | GGAGTCACGTGGTTAA | 0.15
4 | GTTATCACGTGCTTAG | 0.09
5 | GGAGTCACGTGGTGTA | 0.1
6 | GGAGACACGTGCGGTG | -0.1
7 | TATTTCACGTGTTGAC | 0.28
8 | GTTAGCACGTGATGAT | 0.13
9 | TGTGACACGTGAGTGT | 0.08
10 | GGGTACACGTGCCTGG | 0.21
11 | TAATTCACGTGATAAT | 0.33
12 | GGTAACACGTGTTAGG | 0.06
13 | TGGGTCACGTGAGAGC | 0.33
14 | ATGCTCACGTGATGTG | 0.27
15 | AGCGTCACGTGCGGGA | -0.02
16 | GTGTACACGTGGGATT | 0.01
17 | GAGTTCACGTGGGCAA | 0.22
18 | TCGGACACGTGGGAGT | -0.05
19 | GAGGACACGTGGCGGG | -0.04
20 | CGTGGCACGTGAGGGC | 0.09
21 | GTGATCACGTGTCTGT | 0.1
22 | ATTTACACGTGCTGTA | 0.11
23 | CATTTCACGTGGATGG | 0.17

Row | Sequence | relative binding free energy [kcal/mol]
24 | AGGGGCACGTGATCGG | -0.08
25 | GGTTGCACGTGGCTTA | 0
26 | GGTCTCACGTGGTGGC | 0.15
27 | GAGAACACGTGGTTGT | 0.13
28 | CCTTACACGTGGTGGG | 0
29 | TTTTCCACGTGTGTGT | 0.12
30 | ATAATCACGTGGGCGT | 0.06
31 | GTAAACACGTGGTATT | 0.09
32 | CATTTCACGTGGGTCG | 0.13
33 | GTGGTCACGTGTGGTT | 0.29
34 | TGGGACACGTGTAATA | 0.25
35 | TTTTGCACGTGCAATA | 0.06
36 | AAAGTCACGTGGTGTA | 0.01
37 | ATTTGCACGTGGAGTC | 0.18
38 | ATGGTCACGTGTCCGG | 0.15
39 | ATAGGCACGTGATTCT | -0.03
40 | GTTATCACGTGTTGGT | 0.24
41 | GGTAACACGTGATGAG | 0.22
42 | GCTTGCACGTGGGTTT | -0.05
43 | TGAATCACGTGTTTTC | 0.2
44 | GGTGGCACGTGGTAGT | -0.11
45 | CTTTTCACGTGTTCTG | 0.22
46 | TTTCTCACGTGATTTT | 0.2

Row | Sequence | relative binding free energy [kcal/mol]
47 | TGATGCACGTGGCGTA | -0.23
48 | TGTTCCACGTGGTTTG | -0.05
49 | GCCTTCACGTGTTGGT | 0.34
50 | GGCTACACGTGGGGCG | -0.02
51 | TTGAGCACGTGTGTGT | -0.03
52 | CTGTACACGTGAGGGC | 0.28
53 | AGGGTCACGTGGCGCC | 0.14
54 | GGTTGCACGTGCTTTG | 0.02
55 | AAAGTCACGTGTATGT | 0.07
56 | GGGAGCACGTGTTGTT | -0.07
57 | GAGAGCACGTGGTATT | -0.03
58 | ATTATCACGTGTAAAA | 0.21
59 | GAACTCACGTGGGTGG | 0.33
60 | GTATTCACGTGGGCTG | 0.28
61 | TGAATCACGTGTTGAG | 0.21
62 | GGTATCACGTGAGTCT | 0.39
63 | TTTTTCACGTGTGGTC | 0.31
64 | GATTCCACGTGTTGGT | 0.08
65 | ATGAACACGTGGGGCG | -0.16
66 | GAAGACACGTGGTGTG | -0.04
67 | GGCTTCACGTGTGGTC | 0.19
68 | TGGATCACGTGATGTA | 0.2
69 | TTATCCACGTGGAATT | 0.25

Row | Sequence | relative binding free energy [kcal/mol]
70 | TTGGTCACGTGGCGGG | 0.02
71 | TATGTCACGTGTAGCT | 0.07
72 | GTTAACACGTGGACGT | 0.2
73 | CGTAGCACGTGCGGGC | -0.11
74 | TTTATCACGTGCATTT | 0.13
75 | ATTATCACGTGTAATC | 0.38
76 | GATAGCACGTGTTTGG | -0.04
77 | GTCTGCACGTGTTTAG | 0.14
78 | CATGACACGTGGGTTA | -0.15
79 | CGGAACACGTGTTGGA | 0.12
80 | CAGGGCACGTGGTTGA | -0.1
81 | CGCTGCACGTGGGGCG | -0.24
82 | CCTTTCACGTGTAGTG | 0.19
83 | TCGGCCACGTGTATTG | 0.13
84 | GAGAGCACGTGTGGGC | 0.08
85 | GGTTCCACGTGCGGTT | 0.05
86 | TGTCACACGTGTGAGT | 0.13
87 | TTTCACACGTGTTGTG | -0.03
88 | TGATACACGTGCGGGA | 0.04
89 | AGTGACACGTGGGTCA | -0.12
90 | TGGGTCACGTGCAGTC | -0.02
91 | TATTTCACGTGAGATT | 0.37
92 | TTATGCACGTGTGACT | -0.06

Row | Sequence | relative binding free energy [kcal/mol]
93 | GGATTCACGTGGGCTT | 0.19
94 | TGTATCACGTGGGTTT | 0.04
95 | TGAGACACGTGCGTGG | -0.1
96 | CTTTTCACGTGGGGGA | 0.02
97 | GATGGCACGTGATGCG | 0.17
98 | TTATTCACGTGCGTAA | 0.19
99 | TTAGGCACGTGATACA | -0.05
100 | GAAGTCACGTGGTATG | 0.24
101 | GGGTTCACGTGCTGGG | 0.33
102 | GCTAGCACGTGTATGG | 0.02
103 | CGAGACACGTGTAGGG | 0.05
104 | AGTGACACGTGAGCGG | -0.03
105 | CCGGGCACGTGATGTG | -0.02
106 | GGGTGCACGTGCGTAA | -0.17
107 | TGGCTCACGTGCGTGT | 0.15
108 | TGTGGCACGTGAGCTA | -0.01
109 | ATTGGCACGTGTTGGC | -0.07
110 | GTGTCCACGTGGTATG | -0.02
111 | ATAAGCACGTGATGTG | 0.01
112 | CGGTACACGTGATAGG | 0.05
113 | GTGGACACGTGGTGAG | 0.02
114 | TAGCGCACGTGGTAGT | -0.07
115 | TGGGCCACGTGGGCTA | -0.24
